Source: the BET-seq Pho4 binding data (Le et al. 2018)
The other results are listed elsewhere or left out. These are noisy estimates, calculated here from bound and input reads.

Each sequence was assayed against T1, Pho4 (S. cerevisiae) (UniProt P07270) (assay: relative binding free energy (BET-seq); higher = weaker binding). Details: reference: library average.
T1 sequence: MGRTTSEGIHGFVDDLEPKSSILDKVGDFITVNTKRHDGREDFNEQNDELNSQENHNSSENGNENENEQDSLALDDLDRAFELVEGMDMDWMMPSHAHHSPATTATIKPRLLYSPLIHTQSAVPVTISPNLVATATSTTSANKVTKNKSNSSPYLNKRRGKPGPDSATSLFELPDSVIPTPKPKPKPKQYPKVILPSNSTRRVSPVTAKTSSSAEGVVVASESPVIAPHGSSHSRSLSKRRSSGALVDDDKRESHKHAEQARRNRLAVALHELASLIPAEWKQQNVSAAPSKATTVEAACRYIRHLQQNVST

Row | Sequence | relative binding free energy [kcal/mol]
1 | TGTAGCACGTGGTGTG | -0.17
2 | GGGACCACGTGTAATG | 0.21
3 | TTTAGCACGTGGTGGA | -0.12
4 | CGATTCACGTGTGATT | 0.37
5 | AAAAACACGTGGGAGT | 0.07
6 | AAATTCACGTGTTGGC | 0.26
7 | TTATACACGTGCGTGT | -0.16
8 | ATTGTCACGTGGACAT | 0.12
9 | TAAAACACGTGGGTAA | -0.04
10 | TAGTGCACGTGTGTTG | -0.01
11 | TGGTACACGTGATTGT | 0.01
12 | GTTCGCACGTGGGGCT | -0.18
13 | GTAGTCACGTGCATGA | 0.08
14 | TCTCTCACGTGGGGAG | 0.2
15 | GATGGCACGTGGATGA | -0.04
16 | CGTCACACGTGTGGGT | 0.15
17 | ACTGTCACGTGAGTGG | 0.29
18 | TGCTGCACGTGTGTTT | 0.13
19 | TGGAACACGTGCGTGA | 0.17
20 | GTACACACGTGAGTGT | 0.27
21 | AATGTCACGTGAGCAG | 0.23
22 | AGCATCACGTGTAGGG | 0.13
23 | AAGGGCACGTGAGGTG | 0.13

Row | Sequence | relative binding free energy [kcal/mol]
24 | GACATCACGTGAGGTT | 0.52
25 | TATTTCACGTGTATAC | 0.18
26 | CTTTCCACGTGTTTTT | 0.05
27 | TATTGCACGTGGTCTT | -0.08
28 | GATGGCACGTGAGGTA | 0.25
29 | AGGTACACGTGACGTG | 0.21
30 | GTTAGCACGTGGCGGA | -0.08
31 | GTTAGCACGTGATGCT | -0.09
32 | GGATTCACGTGGGCCG | 0.29
33 | TAGAGCACGTGTGCGG | -0.09
34 | TTAATCACGTGGTTAC | 0.17
35 | ATAGGCACGTGGATTG | -0.15
36 | TTTATCACGTGTCAAG | 0.21
37 | TGGGTCACGTGTGTGT | 0.19
38 | AAGTTCACGTGGCAAG | 0.26
39 | GTTGGCACGTGTGCGC | -0.07
40 | AAAGGCACGTGTGAGG | -0.04
41 | GCGTTCACGTGTGCGG | 0.18
42 | AGTTTCACGTGATGGG | 0.44
43 | GTGGTCACGTGAGCGG | 0.29
44 | TCGTTCACGTGTGGCA | 0.42
45 | AACGGCACGTGAATGG | 0.17
46 | TAGTTCACGTGGCATT | 0.29

Row | Sequence | relative binding free energy [kcal/mol]
47 | ATGTTCACGTGAATCG | 0.37
48 | ATGGGCACGTGGGCGA | -0.26
49 | GTAGACACGTGTACGT | 0.24
50 | GGTTGCACGTGTGTCG | 0
51 | GCTTTCACGTGTTGGC | 0.56
52 | TCATGCACGTGTTTAT | -0.08
53 | GGGCCCACGTGATGGT | 0.21
54 | ATGCACACGTGTTGGA | 0.12
55 | CTAGGCACGTGCGTGT | -0.18
56 | AACATCACGTGTGGTT | 0.04
57 | TGTATCACGTGTTACG | 0.09
58 | TTTCACACGTGAGGTA | 0.28
59 | AGGTGCACGTGTGGTT | 0.04
60 | ATGATCACGTGTTTTA | 0.12
61 | CGGCGCACGTGTTTGT | -0.18
62 | CGGCTCACGTGTGTAT | 0.31
63 | GGAGGCACGTGTAGGG | -0.14
64 | GGTCGCACGTGCGTTT | 0.04
65 | ACCTTCACGTGGGGTG | 0.17
66 | TTATGCACGTGTGGGC | -0.01
67 | CAATGCACGTGAAGTG | 0.24
68 | GGCGTCACGTGGCAGG | 0.1
69 | GAGAACACGTGTTGAG | 0.21

Row | Sequence | relative binding free energy [kcal/mol]
70 | CAGGGCACGTGGTGGT | -0.18
71 | GTTTACACGTGCTTGG | 0.21
72 | GATGGCACGTGCATTG | -0.02
73 | TGTCACACGTGTGTAA | 0.04
74 | GAGTCCACGTGTGGGA | 0.12
75 | GTGAACACGTGGTTAG | -0.12
76 | TAATGCACGTGGTTGA | -0.04
77 | GGAAGCACGTGTGGAG | -0.03
78 | TATTGCACGTGAAGCT | 0.2
79 | GATATCACGTGTTTAT | 0.19
80 | TTAATCACGTGGGATG | 0.08
81 | GGATGCACGTGATCGT | 0.16
82 | GGTAGCACGTGACAGG | 0.03
83 | TAGGCCACGTGATGTT | 0
84 | TGGGACACGTGCCGGT | -0.19
85 | AGGTTCACGTGGATTA | 0.26
86 | AGACGCACGTGTGGGT | -0.14
87 | CGAGGCACGTGAAGTG | 0.13
88 | CGTCTCACGTGTTTAT | 0.28
89 | GGTATCACGTGATATG | 0.27
90 | GAAGGCACGTGAGTTT | 0.19
91 | AAGTGCACGTGGACGG | 0.09
92 | ATTTCCACGTGATGTT | 0.24

Row | Sequence | relative binding free energy [kcal/mol]
93 | GGGAGCACGTGAGAGT | 0.02
94 | TCATTCACGTGGTGTG | 0.23
95 | GGTTTCACGTGTTTAA | 0.24
96 | TGGGGCACGTGATTTC | -0.04
97 | GATTTCACGTGACGTA | 0.52
98 | GGGACCACGTGTAGTG | 0
99 | TATATCACGTGTAATG | 0.1
100 | TGTTCCACGTGATATG | 0.07
101 | GTTCGCACGTGCGGTA | 0
102 | CTTGTCACGTGGTTTC | 0.18
103 | GGAGTCACGTGCAATT | 0.32
104 | TGTGACACGTGGGAAA | -0.12
105 | GAGGTCACGTGGGCGT | 0.03
106 | TATTGCACGTGGATGC | 0.05
107 | TGAGGCACGTGATATG | 0.13
108 | TGCTACACGTGGGTGT | 0.05
109 | GGAACCACGTGAGGGG | 0.23
110 | GGTATCACGTGGCAAT | 0.22
111 | GCTGTCACGTGGTTGG | 0.08
112 | GTATGCACGTGGTACG | -0.23
113 | TTGTGCACGTGCTTGA | -0.02
114 | TCTGTCACGTGCAGTT | 0.05
115 | CATTTCACGTGGGGAA | 0.26
